The other results are listed elsewhere or left out.
Experiments:
Assay in all cases: glycan array binding signal (z-score within array); higher = stronger binding
Conditions in all cases: glycan notation: IUPAC condensed, linker removed
[1] = target: Fuc(a1-3)[Gal(b1-4)]Glc6S
Outline: (§1)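 The binding signal is a Z-score computed within each array and averaged over linkers. Arrays of the same protein sequence at different concentrations or buffers were also averaged together. Data originate from 3228 arrays in the Consortium for Functional Glycomics database, kept only where the protein sequence was available.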

[2] = target: Fuc(a1-3)[Gal(b1-4)]GlcNAc
Outline: as §1

[3] = target: Fuc(a1-3)[Gal(b1-4)]GlcNAc(b1-2)Man(a1-3)[Fuc(a1-3)[Gal(b1-4)]GlcNAc(b1-2)Man(a1-6)]Man(b1-4)GlcNAc(b1-4)GlcNAc
Outline: as §1

[4] = target: Fuc(a1-3)[Gal(b1-4)]GlcNAc(b1-2)Man(a1-6)[Gal(b1-4)GlcNAc(b1-2)Man(a1-3)]Man(b1-4)GlcNAc(b1-4)GlcNAc
Outline: as §1

[5] = target: Fuc(a1-3)[Gal(b1-4)]GlcNAc(b1-3)Gal(b1-3)[Fuc(a1-4)]GlcNAc
Outline: as §1

[6] = target: Fuc(a1-3)[Gal(b1-4)]GlcNAc(b1-4)Gal(b1-4)[Fuc(a1-3)]GlcNAc
Outline: as §1

[7] = target: Fuc(a1-3)[Gal(b1-4)]GlcNAc(b1-4)Gal(b1-4)[Fuc(a1-3)]GlcNAc(b1-4)Gal(b1-4)[Fuc(a1-3)]GlcNAc
Outline: as §1

[8] = target: Fuc(a1-3)[Gal(b1-4)]GlcNAc6S
Outline: as §1

[9] = target: Fuc(a1-3)[Gal3S(b1-4)]Glc6S
Outline: as §1

[10] = target: Fuc(a1-3)[Gal3S(b1-4)]GlcNAc
Outline: as §1

[11] = target: Fuc(a1-3)[Gal3S(b1-4)]GlcNAc6S
Outline: as §1

[12] = target: Fuc(a1-3)[GalNAc(b1-4)]GlcNAc
Outline: as §1

[13] = target: Fuc(a1-3)[Neu5Ac(a2-3)]Gal(b1-4)GlcNAc(b1-3)GalNAc
Outline: as §1

[14] = target: Fuc(a1-4)GlcNAc
Outline: as §1

[15] = target: Fuc(b1-3)GlcNAc
Outline: as §1

[16] = target: Gal(a1-2)Gal
Outline: as §1

[17] = target: Gal(a1-3)Gal
Outline: as §1

[18] = target: Gal(a1-3)Gal(b1-3)GlcNAc
Outline: as §1

[19] = target: Gal(a1-3)Gal(b1-4)Glc
Outline: as §1

[20] = target: Gal(a1-3)Gal(b1-4)GlcNAc
Outline: as §1

[21] = target: Gal(a1-3)Gal(b1-4)[Fuc(a1-3)]GlcNAc
Outline: as §1

[22] = target: Gal(a1-3)Gal(b1-4)[Fuc(a1-3)]GlcNAc(b1-2)Man(a1-3)[Gal(a1-3)Gal(b1-4)[Fuc(a1-3)]GlcNAc(b1-2)Man(a1-6)]Man(b1-4)GlcNAc(b1-4)GlcNAc
Outline: as §1

[23] = target: Gal(a1-3)GalNAc
Outline: as §1

[24] = target: Gal(a1-3)[Gal(a1-4)]Gal(b1-4)GlcNAc
Outline: as §1

[25] = target: Gal(a1-4)Gal(b1-4)Glc
Outline: as §1

[26] = target: Gal(a1-4)Gal(b1-4)GlcNAc
Outline: as §1

[27] = target: Gal(a1-4)Gal(b1-4)GlcNAc(b1-3)Gal(b1-4)Glc
Outline: as §1

[28] = target: Gal(a1-4)GlcNAc
Outline: as §1

[29] = target: Gal(a1-6)Glc
Outline: as §1

[30] = target: Gal(b1-2)Gal
Outline: as §1

[31] = target: Gal(b1-3)Gal
Outline: as §1

[32] = target: Gal(b1-3)Gal(b1-4)GlcNAc
Outline: as §1

[33] = target: Gal(b1-3)Gal(b1-4)GlcNAc(b1-2)Man(a1-3)[Gal(b1-3)Gal(b1-4)GlcNAc(b1-2)Man(a1-6)]Man(b1-4)GlcNAc(b1-4)GlcNAc
Outline: as §1

[34] = target: Gal(b1-3)GalNAc
Outline: as §1

[35] = target: Gal(b1-3)GalNAc(a1-3)[Fuc(a1-2)]Gal(b1-4)Glc
Outline: as §1

[36] = target: Gal(b1-3)GalNAc(a1-3)[Fuc(a1-2)]Gal(b1-4)GlcNAc
Outline: as §1

[37] = target: Gal(b1-3)GalNAc(b1-3)Gal(a1-4)Gal(b1-4)Glc
Outline: as §1

[38] = target: Gal(b1-3)GalNAc(b1-4)Gal(b1-4)Glc
Outline: as §1

[39] = target: Gal(b1-3)GalNAc(b1-4)[Neu5Ac(a2-3)]Gal(b1-4)Glc
Outline: as §1

[40] = target: Gal(b1-3)GlcNAc
Outline: as §1

[41] = target: Gal(b1-3)GlcNAc(b1-2)Man(a1-3)[Gal(b1-3)GlcNAc(b1-2)Man(a1-6)]Man(b1-4)GlcNAc(b1-4)GlcNAc
Outline: as §1

[42] = target: Gal(b1-3)GlcNAc(b1-2)Man(a1-3)[Gal(b1-3)GlcNAc(b1-2)Man(a1-6)]Man(b1-4)GlcNAc(b1-4)[Fuc(a1-6)]GlcNAc
Outline: as §1

[43] = target: Gal(b1-3)GlcNAc(b1-3)Gal(b1-3)GlcNAc
Outline: as §1

[44] = target: Gal(b1-3)GlcNAc(b1-3)Gal(b1-4)Glc
Outline: as §1

[45] = target: Gal(b1-3)GlcNAc(b1-3)Gal(b1-4)GlcNAc
Outline: as §1

B1: MRCL (Homo sapiens), NP_872425.1 (protein)
chain: ATKVHFPFHTCDLRIDGDCFMVSSEADTYYRARMKCQRKGGVLAQIKSQKVQDILAFYLGRLETTNEVTDSDFETRNFWIGLTYKTAKDSFRWATGEHQAFTSFAFGQPDNHGLVWLSAAMGFGNCVELQASAAFNWNNQRCKTRNRYICQFAQEHISRWGPGS
glycan array binding signal (z-score) [1]: -0.024 | glycan array binding signal (z-score) [2]: -0.302 | glycan array binding signal (z-score) [3]: -0.635 | glycan array binding signal (z-score) [4]: -0.656 | glycan array binding signal (z-score) [5]: -0.385 | glycan array binding signal (z-score) [6]: -0.365 | glycan array binding signal (z-score) [7]: 0.527 | glycan array binding signal (z-score) [8]: -0.592 | glycan array binding signal (z-score) [9]: 0.152 | glycan array binding signal (z-score) [10]: -0.598 | glycan array binding signal (z-score) [11]: 0.56 | glycan array binding signal (z-score) [12]: -0.706 | glycan array binding signal (z-score) [13]: 1.51 | glycan array binding signal (z-score) [14]: -0.459 | glycan array binding signal (z-score) [15]: -0.532 | glycan array binding signal (z-score) [16]: 0.689 | glycan array binding signal (z-score) [17]: -0.533 | glycan array binding signal (z-score) [18]: -0.68 | glycan array binding signal (z-score) [19]: -0.723 | glycan array binding signal (z-score) [20]: 0.565 | glycan array binding signal (z-score) [21]: -0.578 | glycan array binding signal (z-score) [22]: 2.11 | glycan array binding signal (z-score) [23]: -0.066 | glycan array binding signal (z-score) [24]: 0.889 | glycan array binding signal (z-score) [25]: 0.266 | glycan array binding signal (z-score) [26]: 0.645 | glycan array binding signal (z-score) [27]: -0.653 | glycan array binding signal (z-score) [28]: -0.585 | glycan array binding signal (z-score) [29]: 0.048 | glycan array binding signal (z-score) [30]: -0.726 | glycan array binding signal (z-score) [31]: 0.172 | glycan array binding signal (z-score) [32]: 0.514 | glycan array binding signal (z-score) [33]: -0.51 | glycan array binding signal (z-score) [34]: -0.169 | glycan array binding signal (z-score) [35]: 2.71 | glycan array binding signal (z-score) [36]: -0.525 | glycan array binding signal (z-score) [37]: -0.687 | glycan array binding signal (z-score) [38]: -0.601 | glycan array binding signal (z-score) [39]: 0.141 | glycan array binding signal (z-score) [40]: 1.16 | glycan array binding signal (z-score) [41]: -0.381 | glycan array binding signal (z-score) [42]: 0.784 | glycan array binding signal (z-score) [43]: -0.189 | glycan array binding signal (z-score) [44]: -0.232 | glycan array binding signal (z-score) [45]: -0.501
